Measured values: PubChem BioAssay AID624417 (National Center for Advancing Translational Sciences (NCATS), 2012)
Screen size: about 410,000 compounds; about 6,400 (1.6%) were called active. Inconclusive results, whose numbers are uncertain, are shown with a selection of clear calls. Calls follow the shape of the dose curve; as a rule, active = well fitted inhibition curve with a large enough effect; inconclusive = small, poorly fitted or top-dose-only effect; inactive = no such curve, though single readings can be large or run the other way. Potencies beside an inconclusive call are fits to weak or partial responses and may not hold up.

biological target: Glucagon-like peptide 1 receptor (Homo sapiens) (UniProt P43220); assay: qHTS of GLP-1 Receptor Inverse Agonists (Inhibition Mode); settings: HEK293 GLP-1R CRE-luciferase, luminescence, 24 h, GLP-1R form is constitutively active; activity change, negative = inhibition: at 38.3 µM (top of the series) unless noted; also: nearly all actives have a fitted effect of over 55% in size
Chain of UniProt P43220 (P43220 whole entry, looked up): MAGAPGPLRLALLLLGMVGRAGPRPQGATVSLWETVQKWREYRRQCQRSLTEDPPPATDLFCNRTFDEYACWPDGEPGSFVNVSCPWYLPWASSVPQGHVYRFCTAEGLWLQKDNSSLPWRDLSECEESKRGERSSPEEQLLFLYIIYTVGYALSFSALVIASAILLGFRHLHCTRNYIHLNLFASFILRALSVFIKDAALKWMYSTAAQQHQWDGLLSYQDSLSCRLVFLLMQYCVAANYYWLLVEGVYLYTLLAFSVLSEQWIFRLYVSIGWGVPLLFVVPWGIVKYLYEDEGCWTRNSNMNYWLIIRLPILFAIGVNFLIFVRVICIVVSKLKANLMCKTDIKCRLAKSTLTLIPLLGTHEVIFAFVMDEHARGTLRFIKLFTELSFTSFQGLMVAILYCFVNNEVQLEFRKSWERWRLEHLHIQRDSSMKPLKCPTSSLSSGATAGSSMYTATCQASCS
Outline: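 Constitutively active GLP-1R drives a cAMP-responsive luciferase in stably transfected HEK293 cells; test compounds are added after overnight (12 h) attachment and left 24 hr, and signal loss in luminescence marks inhibition.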
% is scaled to controls: 0 for no effect and ±100 for the full control effect; potency is read from the fitted curve at half-maximal effect; tags tell the direction and shape of the fitted curve.

Potency, inconclusive:
O=C(COC(=O)c1ccc(O)cc1)NCCC1=CCCCC1 28.2 µM [inhibitor, single point]
CC1=C(C)/C(=N\OS(=O)(=O)c2ccccc2)C=CC1=O 12.6 µM [inhibitor, single point]
CCCCOc1ccc(C(O)(CCN2CCOCC2)c2ccccc2)cc1 (stereo not given) 28.2 µM [inhibitor, single point]
COc1cc(OC)cc(C(=O)N[C@H](C(=O)N2CCc3ccccc32)C(C)C)c1 22.4 µM [inhibitor, single point]
CN(c1ccccc1)S(=O)(=O)c1cccc(NC(=O)CSc2nncs2)c1 31.6 µM [inhibitor, single point]
O=C(NCc1nc2ccccc2[nH]1)C1=C[C@@H](c2ccc(C(F)(F)F)cc2)C[C@@H](OCc2ccc(CO)cc2)O1 10 µM [inhibitor, partial curve]
O=C(Nc1ccc(Cl)cc1)c1ccc2c(c1)N(Cc1ccccc1)C(=O)c1ccccc1S2(=O)=O 5.62 µM [inhibitor, full curve, poor fit]
C=C(C)C(=O)OC1(C(F)(F)F)Oc2cc(C)ccc2NC1=O (stereo not given) 28.2 µM [inhibitor, single point]
CC1CCCN(C2(O)C(=O)Nc3ccc(Br)cc32)C1 (stereo not given) 31.6 µM [inhibitor, single point]
CSc1ccc(CN(C)CC(=O)NC(=O)NC(C)(C)C)cc1 7.94 µM [inhibitor, partial curve, poor fit]
CCCn1nnc(NC(=O)C(c2ccccc2)c2ccccc2)n1 28.2 µM [inhibitor, single point]
CN(c1ccc(C(=O)N2CCN(c3ccccc3F)CC2)cc1)S(=O)(=O)c1ccccc1 28.2 µM [inhibitor, single point]
C/C(=N/NC(=O)c1cc(C2CC2)[nH]n1)c1cccs1 1.41 µM [inhibitor, full curve, poor fit]
C=CCNC(=O)C12CC3(C)CC(C)(CC(C)(C3)C1)C2 28.2 µM [inhibitor, single point]
Cc1ccc(C(=O)COC(=O)C(Cc2c[nH]c3ccccc23)NC(=O)c2ccc(Br)cc2)cc1 (stereo not given) 15.8 µM [inhibitor, single point]
O=C(NCc1nnnn1-c1ccc(F)c(F)c1)c1ccc2ccccc2c1 28.2 µM [inhibitor, single point]
Cc1ccccc1N1C(=O)CC(Sc2nnc(-c3ccccc3)o2)C1=O (stereo not given) 10 µM [inhibitor, single point]
N#Cc1ccc(S(=O)(=O)N2CCCN(c3ccc(C(F)(F)F)cn3)CC2)cc1 31.6 µM [inhibitor, single point]
O=C1COc2ccccc2N1Cc1ccccc1Cl 22.4 µM [inhibitor, single point]
O=c1cc(N2CCN(c3ccc(F)cc3)CC2)[nH]c(=O)n1Cc1ccc(F)cc1 2.51 µM [inhibitor, full curve]
CSc1ccc(CN2C(=O)C(C)ON=C2c2ccccc2F)cc1 (stereo not given) 15.8 µM [inhibitor, single point]
CCOC(=O)C1(Cc2cccc(Cl)c2)CCCN(C(=O)c2cc(C(C)C)nn2C)C1 (stereo not given) 22.4 µM [inhibitor, single point]
Cc1cccnc1Nc1nc(-c2ccccc2)cs1 7.94 µM [inhibitor, partial curve]
CCOC(=O)N1CCN(C(=O)c2cc(-c3ccncc3)nc3ccccc23)CC1 7.94 µM [inhibitor, partial curve, poor fit]
Cc1c(C(=O)Nc2ccc(F)cc2F)nnn1-c1ccccc1Br 28.2 µM [inhibitor, single point]
O=C(NCCSCc1ccco1)Nc1cc(Cl)cc(Cl)c1 28.2 µM [inhibitor, single point]
COc1ccc(N(CC(=O)Nc2ccc3c(c2)OCCO3)S(=O)(=O)c2c(C)noc2C)cc1 8.91 µM [inhibitor, partial curve, poor fit]
O=S(=O)(NCc1ccncc1)c1ccc(S(=O)(=O)NCC2CCCO2)cc1 (stereo not given) 28.2 µM [inhibitor, single point]
COc1ccc(O)c(C(=O)CC(=O)c2ccc(F)cc2)c1 11.2 µM [inhibitor, partial curve, poor fit]
CC(C)c1ccc(NC(=O)CCS(=O)(=O)c2ccc(Br)s2)cc1 28.2 µM [inhibitor, single point]
O=C(OCc1cn([C@@H]2C[C@H](c3ccc(Cl)cc3)N(C(=O)c3cccs3)C[C@H]2O)nn1)c1ccccc1 31.6 µM [inhibitor, partial curve, poor fit]
COc1cccc(-c2cc(C(F)(F)F)nc(NCc3ccc(F)cc3)n2)c1 20 µM [inhibitor, partial curve, poor fit]
CCN(CC(=O)NCc1cccs1)C(=O)C(c1ccccc1)c1ccccc1 28.2 µM [inhibitor, single point]
Clc1ccc(-c2nnn(Cc3nc4ccccc4s3)n2)cc1 20 µM [inhibitor, single point]
Cc1n[nH]c(C)c1S(=O)(=O)Nc1ccc2c(c1)OCCO2 10 µM [inhibitor, single point]
CCCOc1ccc(F)cc1-c1cc(C(=O)NCc2cccc(C(F)(F)F)c2)[nH]n1 28.2 µM [inhibitor, single point]
CC(C)n1cc(/C=C2/SC(=O)N(CC(=O)N3CCCC3)C2=O)c2ccccc21 3.55 µM [inhibitor, partial curve, poor fit]
COc1cccc2oc3cc(C#CC4(O)CCCCC4)ccc3c(=O)c12 12.6 µM [inhibitor, single point]
CCOC(=O)c1nnn(-c2nonc2N)c1-c1cccc2ccccc12 8.91 µM [inhibitor, partial curve, poor fit]
COCCN(Cc1nc2ccccc2c(=O)[nH]1)C(=O)COc1ccccc1-c1ccccc1 3.55 µM [inhibitor, full curve]
CC(C(=O)NCc1ccccc1)N1CCN(c2ccc(F)cc2)CC1 (stereo not given) 7.94 µM [inhibitor, partial curve, poor fit]
COC1CCN(C(=O)c2cc(COc3cc(C)ccc3C)on2)CC1 28.2 µM [inhibitor, single point]
S=C(Nc1ccc(Oc2ccccc2)cc1)NC1CCCCC1 28.2 µM [inhibitor, single point]
COc1ccc(OC)c(COC(=O)c2cccc(S(=O)(=O)N3CCCCC3)c2)c1 28.2 µM [inhibitor, single point]
Cc1cccc(C)c1NC(=O)c1ccc2nc(CCc3ccccc3)oc2c1 7.08 µM [inhibitor, partial curve, poor fit]
Cn1c(=O)n(C)c2cc(/C=N/NC(=S)NCc3ccccc3)ccc21 28.2 µM [inhibitor, single point]
Cc1ccc2nc(SCC(=O)Nc3c(F)cccc3F)[nH]c2c1 7.94 µM [inhibitor, partial curve, poor fit]
CCCCN(C)S(=O)(=O)c1ccc(C(=O)Nc2nnc(CSC)o2)cc1 11.2 µM [inhibitor, partial curve]
CCOCCOC(=O)c1[nH]c2c(c1C)C(=O)CC(c1ccc(OC)c(OC)c1)C2 (stereo not given) 0.891 µM [inhibitor, full curve, poor fit]
COC(=O)[C@]12CCCCC=C1N(Cc1ccc3c(c1)OCO3)C(=O)[C@H](CC(=O)NCc1cccc(C(F)(F)F)c1)C2 20 µM [inhibitor, single point]

Potency, inactive:
COCCCNC(=O)CN1C(=O)c2c(c3ccccc3n2C)C1c1ccc(OC)cc1 (stereo not given)
Cc1oc(-c2ccccc2)nc1CSc1nc2c(c(=O)[nH]1)CCC2
Fc1ccc(CNc2nc3c(-c4ccc(F)cc4)nnn3c3ccccc23)cc1
Cc1cc2oc(C(=O)Nc3cccc(-c4nc5ccccc5o4)c3)c(C)c2cc1Cl
COc1nccnc1NS(=O)(=O)c1ccc(NC(=S)NC(=O)c2cccc(F)c2)cc1
COc1ccc(NC(=O)c2c(C)oc3c2CCCC3)cc1
O=C(COC(=O)CCNS(=O)(=O)c1ccccc1F)Nc1nnc(-c2ccccc2)o1
O=C(Nc1ccc(Cl)cc1Cl)c1cccc(N2C(=O)C=CC2=O)c1
CN(C)c1ccc(C(=S)N2CCCCCC2)cc1
Cc1ccc(/C=c2/sc3nnc(-c4ccccc4Cl)n3c2=O)o1
COc1cc(/C=N/Nc2nncc3ccccc23)cc(OC)c1OC
CNC(=O)c1c(NC(=O)c2cc(=O)c3ccccc3o2)sc2c1CCC2
COc1ccccc1NC(=O)C(=O)/C=C(\O)c1ccccc1

Potency, active:
COC(=O)c1c(NC(NC(=O)C(C)C)C(Cl)(Cl)Cl)sc2c1CCC2 (stereo not given) 8.91 µM

Activity change, negative = inhibition, inactive:
O=[N+]([O-])c1cc(CN2CCOCC2)c2cccnc2c1O 11.1% [at 7.66 µM]
